In all, about 33,000 sequences were measured (“E-score (-0.5 to 0.5)”: median about -0.035, highest 2% from about 0.34 on). Some of the results follow.
Molecular target: T1, Mot3 (UniProt P54785)
T1 sequence: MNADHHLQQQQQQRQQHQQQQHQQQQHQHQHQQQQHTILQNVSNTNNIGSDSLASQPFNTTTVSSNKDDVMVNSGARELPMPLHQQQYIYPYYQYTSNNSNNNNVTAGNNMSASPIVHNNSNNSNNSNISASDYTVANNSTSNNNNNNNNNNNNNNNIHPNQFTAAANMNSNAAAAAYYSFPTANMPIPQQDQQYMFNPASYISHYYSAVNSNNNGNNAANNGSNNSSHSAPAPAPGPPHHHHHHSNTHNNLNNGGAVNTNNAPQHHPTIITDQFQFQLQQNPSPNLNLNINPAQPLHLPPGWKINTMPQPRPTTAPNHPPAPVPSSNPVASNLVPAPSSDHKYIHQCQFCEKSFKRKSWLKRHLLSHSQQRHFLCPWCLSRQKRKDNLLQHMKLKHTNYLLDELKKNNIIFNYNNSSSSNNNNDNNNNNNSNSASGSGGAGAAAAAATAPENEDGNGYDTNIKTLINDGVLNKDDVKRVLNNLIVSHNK
Assay: PBM E-score (8-mer binding enrichment) (E-score (-0.5 to 0.5)); higher = stronger / more preferred TF binding; most listed sequences are background and not binding sites
Conditions: protein concentration: 200 nM; construct: GST-full length
Procedure, shortened: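 Detection of bound protein used fluorescent anti-GST, with scans normalised by masliner. The proteins were GST-tagged yeast transcription factors applied at about 100-200 nM to universal all-10-mer Agilent arrays made double-stranded by primer extension. Each ungapped eight-base word, pooled with its reverse complement, was scored with an E-score from the Universal PBM Analysis Suite.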

Row | Sequence | PBM E-score
1 | ACAGTACG | 0.173
2 | GACGCCGC | -0.268
3 | ACCCGGCA | -0.316
4 | CAACAAAG | 0.15
5 | CCGCAATA | -0.0667
6 | AAATAATT | 0.0933
7 | GCGCCCCC | -0.248
8 | CCGTCGAG | -0.0153
9 | ATTTTGCG | -0.0408
10 | AAGGGTTA | 0.0507
11 | CTACGCTC | -0.0123
12 | ATCTCCTC | -0.0293
13 | AGTAGGGA | -0.0867
14 | GCTCTGTA | 0.00681
15 | AGTAAAAA | 0.16
16 | CCGAATGA | -0.243
17 | CGGCGCAC | -0.223
18 | AGCCTCAC | -0.292
19 | ACGGGGGG | -0.118
20 | ACCACCGT | -0.106
21 | AATGAACC | -0.129
22 | AATATTCC | -0.0463
23 | ACAAAGGG | -0.0152
24 | CGGCTACG | -0.205
25 | GAGTCTAA | -0.0987

Row | Sequence | PBM E-score
26 | CGACAGAA | -0.216
27 | CGTGCCAC | -0.0877
28 | GCTTTCAA | 0.0658
29 | GGCACACA | 0.29
30 | CGTGTTAA | 0.418
31 | CATCCGAG | -0.127
32 | ATACTGTC | 0.114
33 | CTCCTGCA | -0.092
34 | AGGCGCGC | 0.114
35 | AGAAGTCA | 0.0581
36 | ATGTTTAA | 0.285
37 | AGAGAACG | 0.0344
38 | GCCAGGGA | -0.0848
39 | ATCACAAA | 0.00583
40 | AACATCGA | 0.184
41 | CCGTTAAA | 0.118
42 | AGTCCTTA | -0.0443
43 | CTCAGAAC | 0.0654
44 | CACAGCCG | -0.192
45 | GGAGCTCA | -0.0924
46 | ACAGGCTC | 0.404
47 | ATTGCTAG | -0.124
48 | AGCGTGGA | -0.226
49 | GGGGTAAC | -0.0357
50 | CGGTTCAA | -0.0702

Row | Sequence | PBM E-score
51 | CACTCCAC | -0.0184
52 | ATCTAGGC | 0.0434
53 | TCACGAAA | 0.0869
54 | ACGCTTCG | -0.0564
55 | CGCCGGCC | -0.27
56 | AGACTCCT | -0.297
57 | CCCTTCGG | -0.201
58 | AAGGCTCG | 0.235
59 | ACTACCGC | -0.0469
60 | CAACCTGC | 0.0356
61 | ACCGCGGC | -0.114
62 | TGCCTCAA | 0.365
63 | AGACTCCC | -0.39
64 | CGCGATCA | -0.0397
65 | CCTATTAC | 0.344
66 | CACCTCTG | -0.129
67 | ACGACCCT | -0.0707
68 | AGGTGGTA | -0.0557
69 | ACGTTTCT | 0.101
70 | GCGAATGA | 0.0414
71 | AATCCAAC | 0.0744
72 | CTCTCCAC | -0.31
73 | CGTCTTTC | -0.181
74 | ACTTTCTG | 0.0367
75 | CGACGAAC | -0.104

Row | Sequence | PBM E-score
76 | CGCTTATA | -0.0032
77 | GCAGTAGA | -0.195
78 | AGATGCCC | -0.17
79 | CTGTGTCA | 0.233
80 | AAGCAAAG | -0.00515
81 | AGCTAAAT | -0.137
82 | GAAAACTA | -0.0722
83 | ATATGGCC | -0.206
84 | CGGAGAGC | -0.172
85 | CGGGCGTC | -0.26
86 | CTCGATTA | 0.0598
87 | GCAAGGCA | 0.469
88 | GGAAACAC | 0.138
89 | ACGTGGCT | -0.0949
90 | AGAGTTGC | 0.00244
91 | AGGCTGCC | -0.131
92 | TATGTTCA | 0.2
93 | CATACACC | -0.0972
94 | AACGTTGA | 0.181
95 | TGCACCAA | -0.187
96 | AACACACG | 0.266
97 | CGATTGTA | 0.131
98 | ATTGCCTC | 0.331
99 | CAAGGGTA | -0.0906
100 | ACTGGTAA | 0.0941

Row | Sequence | PBM E-score
101 | CATTTCAG | 0.0934
102 | GCCGCAGA | -0.188
103 | GCTCGCCA | -0.114
104 | AGCAGTTG | -0.103
105 | AAACGTGA | 0.178
106 | GCTCCCAA | -0.289
107 | GCAGATGC | 0.137
108 | TTGCTAAA | 0.0124
109 | GTCCGCCA | -0.295
110 | AATGCTTG | -0.0507
111 | ACATTGTA | 0.223
112 | TCGTTGCA | 0.114
113 | GGCCACAC | -0.185
114 | TAACAAAA | 0.206
115 | AAGCCAAT | -0.0848
116 | CACAGGCG | 0.277
117 | CATGCCTC | 0.207
118 | CATGCTCA | 0.0727
119 | AGCCTTCG | 0.0956
120 | AGAGGGTG | -0.153
121 | GCCGCGTA | 0.243
122 | AGTAGGCC | -0.1
123 | AACTGGTC | -0.125
124 | CTAGCGGC | -0.261
125 | GTAGCTAA | 0.00767

Row | Sequence | PBM E-score
126 | CAGGCAGA | 0.0294
127 | ACTGCCCA | 0.0214
128 | CGTGAAAG | 0.108
129 | ATTATCCC | 0.00179
130 | ATGCGCAA | -0.188
131 | ACCAGCTA | -0.0514
132 | TGCAAGCA | -0.0605
133 | CGTCATTC | 0.0277
134 | AGATGATC | 0.0357
135 | GTCTGCGA | -0.326
136 | AGTCGTCG | -0.0828
137 | CCATAGGG | -0.0579
138 | CTAAGTGC | -0.00085
139 | AAAGGCGT | 0.126
140 | GCCTCAAA | -0.0438
141 | AACCAAGG | 0.14
142 | CAACCACG | 0.0989
143 | GGTTATAA | -0.0249
144 | GCTAAACA | 0.102
145 | CTATGCCA | -0.115
146 | CTGCAGGC | 0.406
147 | GAAGCGAC | -0.176
148 | AAGCCTAT | 0.168
149 | ATCGTGGA | -0.139
150 | CGAGGATA | -0.281

Row | Sequence | PBM E-score
151 | ATTTAGGC | 0.339
152 | AACCAAAC | -0.0444
153 | AGCACACC | -0.168
154 | ACCAAAAA | 0.0734
155 | CAGATCTC | -0.268
156 | AGGCTCCC | 0.0936
157 | ATCGTGCC | 0.27
158 | TCCAACCA | 0.00277
159 | ATCTAGGG | -0.206
160 | GAGTGAAA | -0.115
161 | GACGTCTC | -0.0253
162 | CGAGCACG | -0.0182
163 | AGCGAGAT | -0.266
164 | ATCGCTTC | -0.178
165 | CTTAAGGC | 0.314
166 | GCAAACCA | 0.0881
167 | GCCGAGGC | 0.0168
168 | ATTTGGGC | -0.0729
169 | CGTAGTTC | -0.0263
170 | GGTTAAAC | 0.0673
171 | AATGGGGT | 0.00375
172 | CTGGAGCC | -0.0386
